# Results as given in the supplement of paper PMC3334620.
# Over roughly 33,000 sequences, “E-score (-0.5 to 0.5)” has its median near -0.036; the highest 2% begin near 0.37. This is one part of the list.
# Target: T1, Yer064c (UniProt P40041)
# T1 sequence: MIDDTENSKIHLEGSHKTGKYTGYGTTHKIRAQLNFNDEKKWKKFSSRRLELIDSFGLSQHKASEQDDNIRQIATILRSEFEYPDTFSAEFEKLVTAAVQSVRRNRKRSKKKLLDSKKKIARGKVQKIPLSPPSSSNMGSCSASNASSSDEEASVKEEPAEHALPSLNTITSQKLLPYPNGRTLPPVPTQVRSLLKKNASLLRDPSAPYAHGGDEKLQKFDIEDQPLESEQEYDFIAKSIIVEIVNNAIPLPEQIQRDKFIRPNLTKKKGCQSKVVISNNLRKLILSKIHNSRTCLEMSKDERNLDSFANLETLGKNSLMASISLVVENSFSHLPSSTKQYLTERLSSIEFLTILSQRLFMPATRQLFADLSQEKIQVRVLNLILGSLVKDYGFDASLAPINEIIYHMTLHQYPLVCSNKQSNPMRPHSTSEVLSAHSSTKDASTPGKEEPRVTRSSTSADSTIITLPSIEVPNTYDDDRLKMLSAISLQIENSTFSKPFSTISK
# Assay: PBM E-score (8-mer binding enrichment) (E-score (-0.5 to 0.5)); higher = stronger / more preferred TF binding; most listed sequences are background and not binding sites
# Conditions: protein concentration: 200 nM; construct: GST-full length
# Experimental: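 Universal 'all 10-mer' protein binding microarrays (Agilent AMADID 015681) probed with GST-tagged S. cerevisiae TFs (full-length or DBD) made by in vitro transcription/translation (PURExpress), about 100-200 nM. Bound TF was detected with fluorescent anti-GST. Each ungapped 8-mer (which stands for itself and its reverse complement) is scored by the PBM enrichment score (E-score), a modified Wilcoxon-Mann-Whitney statistic from -0.5 to +0.5, computed with the Universal PBM Analysis Suite. Scale: above 0.35 generally sequence-specific binding.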
row,Sequence,PBM E-score
1,CACGAAGA,0.175
2,ATGTCATC,-0.179
3,ACAGGTGC,-0.16
4,ACGTAGTA,-0.0277
5,ACGGGCGA,-0.195
6,AGTGCCAG,-0.246
7,ACTGATGG,0.00675
8,AACCGGCG,0.00912
9,GTCTCACA,0.273
10,AGAGGGGA,-0.235
11,AAGTCATA,0.46
12,GATACTAA,0.0479
13,GATTGGAA,0.0504
14,ACGCAAGA,-0.00165
15,GCAACCGC,-0.0648
16,ATGGAAAG,-0.0473
17,ACAGGTTG,-0.138
18,CCGTTTCA,-0.244
19,CAGTGTCA,0.0794
20,CCACGCTA,-0.126
21,CTCTACGA,0.148
22,AGCCTCCG,-0.212
23,TACATAGA,0.0752
24,CGCGGAAA,-0.0571

row,Sequence,PBM E-score
1,CAGCGACA,-0.154
2,GACCCATC,0.13
3,GAAACACA,0.144
4,CATTTCGG,-0.126
5,CGCAGAAC,-0.0691
6,CTGCTGCA,-0.0266
7,ATCAAGAC,0.181
8,AGTTTGAC,0.0997
9,ACGGATAA,-0.0519
10,CCACTTCC,-0.0204
11,AGTCCTGG,0.251
12,AGCACTCG,-0.225
13,CGCATCTC,-0.208
14,AACTTTGA,0.173
15,ACCCGTCG,-0.22
16,AGGAAAGA,0.028
17,TCCTCGCA,0.0301
18,CAAAGATG,-0.0307
19,CCATCCTC,-0.0886
20,ACACAGAC,0.19
21,CGAGGGCG,-0.247
22,AGGTTAAA,0.0731
23,ATATATGG,0.0145
24,ACCATATC,0.0108

row,Sequence,PBM E-score
1,CAGCTTGA,0.198
2,AGTCTAAG,0.206
3,ATTCTCAA,0.13
4,GCAGTTCC,-0.275
5,AGTACATA,0.128
6,ACTCAGTG,0.251
7,CCTCGTCA,0.11
8,CCCTGTAA,-0.0746
9,CTAGTTGA,0.161
10,AAAAAGCT,-0.064
11,CTCACTAC,0.158
12,AATTAGAG,0.0626
13,TATGCAAA,-0.0478
14,GGCCGACC,-0.247
15,AACGGGCA,-0.194
16,AGAATATA,0.0599
17,AATGCATC,0.00264
18,AAATGCTA,-0.0549
19,AGGGTAAT,0.0524
20,ACGATTCA,0.298
21,CGCTCCCC,-0.299
22,TCCTCAAA,0.24
23,CAAGTAGA,-0.0644
24,AGGGACGA,-0.2

row,Sequence,PBM E-score
1,CCGGCAAC,-0.124
2,TCTTACCA,0.122
3,TGCATTAA,0.0992
4,CTAGGAAA,-0.00423
5,GAGCTATC,-0.332
6,CCTTATGC,-0.19
7,CCGTCCCG,-0.193
8,ATGACTGG,0.409
9,GCGGCGGA,-0.113
10,GTCCAGAA,-0.109
11,GAGATGGC,-0.0344
12,CACTTTCG,-0.131
13,CACAGTTC,-0.112
14,GTCCCTGA,0.0819
15,AGGTGGGG,-0.12
16,CGTCACCC,-0.258
17,CATAGCGA,0.0805
18,AAAATGGC,-0.194
19,AAAGTCCA,0.0185
20,GAACGAAC,-0.0123
21,AGGGCTAG,-0.215
22,ACTATCCT,0.0209
